{"source": "PubChem BioAssay AID624296", "about": "(National Center for Advancing Translational Sciences (NCATS), 2012)", "note": "Screen size: about 350,000 compounds; about 9,900 (2.8%) were called active. This list was built around the results that the source calls inconclusive (neither active nor inactive); the mix of calls is not that of the screen. Calls come from the whole dose curve; as a rule, active = well fitted activation curve with a large enough effect; inconclusive = small, poorly fitted or top-dose-only effect; inactive = no such curve, though single readings can be large or run the other way. Potencies of inconclusive entries are left out as doubtful fits. Potency is the fitted concentration of half-maximal effect; tags give direction and shape of the fitted curve.", "data": [{"experiment": "A quantitative high throughput screen for small molecules that induce DNA re-replication in MCF 10a normal breast cells; note: nearly all actives have a fitted effect of over 50% in size; for activity, positive = re-replication: % of control where 0% means no effect.", "conditions": "MCF 10A DNA re-replication, Hoechst nuclear intensity, 48 h; activity, positive = re-replication: at 46.1 µM (top of the series)", "values": [{"smiles": "Cc1ccc(-c2nn(CC(=O)Nc3ccc4c(c3)nc3n4CCOC3)c(=O)c3ccccc23)cc1", "Potency": "inconclusive [activator, partial curve, poor fit]"}, {"smiles": "CC(C)(C)Nc1c2ccccc2nc2ccccc12", "Potency": "active: 14.6 µM"}, {"smiles": "Cc1ccc(/C=C2\\CCC(C3CCCC3)C2=O)cc1", "note": "(centres undefined)", "Potency": "inactive"}, {"smiles": "COC(=O)c1sccc1NC(=S)N1C(C)CCCC1C", "note": "(centres undefined)", "Potency": "inactive"}, {"smiles": "O=C(Cc1ncc(C(F)(F)F)cc1Cl)N1CCN(c2ccc(F)cc2)CC1", "Potency": "inactive"}, {"smiles": "CC(C)CN(c1ccccc1)S(=O)(=O)c1nnc(NC(=O)C(C)C)s1", "Potency": "inconclusive [activator, partial curve, poor fit]"}, {"smiles": "Cc1c(Cl)cccc1NC(=O)NN1CCN(C)CC1", "Potency": "inconclusive [activator, partial curve, poor fit]"}, {"smiles": "CCCCN1CC(COCc2ccccc2)Oc2ccccc2S1(=O)=O", "note": "(centres undefined)", "Potency": "inactive"}, {"smiles": "CCO[C@@H]1OC(C(=O)N2CCOCC2)=C[C@H](C(C)(C)C)[C@H]1CCCO", "Potency": "inconclusive [activator, full curve, poor fit]"}, {"smiles": "Cn1c(SCC(=O)c2ccccc2)nnc1-c1cnccn1", "Potency": "inconclusive [activator, single point]"}, {"smiles": "CC1=CC(=O)N(c2cccc(C(F)(F)F)c2)C1c1ccc(Cl)cc1", "note": "(centres undefined)", "Potency": "inconclusive [activator, single point]"}, {"smiles": "COc1ccc(/C=C/c2nnc(NC(=O)c3ccco3)s2)cc1", "Potency": "inconclusive [activator, single point]"}, {"smiles": "O=S(=O)(/N=S1\\CC=CCN1S(=O)(=O)c1ccccc1)c1ccccc1", "note": "(centres undefined)", "Potency": "active: 18.4 µM"}, {"smiles": "Cc1ccc(Nc2nnc(SCC(O)=C(C#N)c3nc4ccccc4[nH]3)s2)c(C)c1", "Potency": "inconclusive [activator, single point]"}, {"smiles": "CCC1CCc2sc(C(=O)N3CCN(c4ccccn4)CC3)cc2C1", "note": "(centres undefined)", "Potency": "inconclusive [activator, single point]"}, {"smiles": "Cc1ccc(CN=c2c([N+](=O)[O-])nn(-c3ccc4c(c3)OCCO4)n2O)cc1", "Potency": "inactive"}, {"smiles": "Cc1ccc(N(CC2CO2)S(=O)(=O)c2ccc(C)cc2)cc1", "note": "(centres undefined)", "Potency": "inactive"}, {"smiles": "CCN(CC)CCNC(=S)NC(=O)c1cn(-c2ccccc2)nc1-c1ccc(OC)cc1", "Potency": "inconclusive [activator, partial curve, poor fit]"}, {"smiles": "CCCC(=O)N(CCc1ccccc1)Cc1nc2ccccc2c(=O)[nH]1", "Potency": "inconclusive [activator, partial curve, poor fit]"}, {"smiles": "CCn1c(SCC#N)nc2c(c1=O)C1(CCCC1)Cc1ccccc1-2", "Potency": "inconclusive [activator, single point]"}, {"smiles": "COc1cc(C(c2c(O)cc(C)[nH]c2=O)c2c(O)cc(C)[nH]c2=O)ccc1O", "Potency": "inconclusive [activator, single point]"}, {"smiles": "Cc1cc(Nc2ccccc2)nc(-c2ccccc2O)n1", "Potency": "inconclusive [activator, single point]"}, {"smiles": "CCOC(=O)C1CCN(S(=O)(=O)c2ccc3[nH]c4c(c3c2)CCCC4)CC1", "Potency": "inconclusive [activator, single point]"}, {"smiles": "COc1cc(C(=O)Nc2ccc3c(c2)OCO3)ccc1-n1cnnn1", "Potency": "inconclusive [activator, single point]"}, {"smiles": "COc1ccc(C)cc1NC(=O)CSc1nnc(-c2ccccn2)n1Cc1ccco1", "Potency": "inactive"}, {"smiles": "Cc1ccc(C)c(NC(=O)CCC(=O)N/N=C/c2cc([N+](=O)[O-])ccc2O)c1", "Potency": "inconclusive [activator, single point]"}, {"smiles": "CC(=O)NC(c1cc(F)c2cccnc2c1O)C1CC1", "note": "(centres undefined)", "Potency": "inconclusive [activator, single point]"}, {"smiles": "COc1ccc2c(c1)OC[C@H]1[C@H]2N2C(=O)c3cc(Br)ccc3NC(=O)[C@@]2(C)[C@H]1c1ccccc1", "Potency": "inactive"}, {"smiles": "COc1ccc(C(=O)Cc2nnc(C)s2)cc1", "Potency": "inconclusive [activator, single point]"}, {"smiles": "O=C(N/N=C/c1ccc2c(c1)OCO2)c1cc(-c2ccncc2)nc2ccccc12", "Potency": "active: 5.8 µM"}, {"smiles": "CCOC(=O)CN1C=C(c2ccc3ccccc3n2)C(C[N+](=O)[O-])c2ccccc21", "note": "(centres undefined)", "Potency": "active: 16.4 µM"}, {"smiles": "COc1cc(/C=N/NC(=O)c2ccc(CSc3nncn3C)cc2)ccc1OCC(=O)N1CC(C)OC(C)C1", "note": "(centres undefined)", "Potency": "inconclusive [activator, partial curve, poor fit]"}, {"smiles": "COc1ccc(-n2c(SCC(=O)NC3CCCCC3)nc3ccsc3c2=O)cc1", "Potency": "inactive"}, {"smiles": "O=C(CSc1nnc(SCc2ccc(Cl)cc2)s1)N1CCN(C(=O)c2ccco2)CC1", "Potency": "inconclusive [activator, partial curve, poor fit]"}, {"smiles": "CCOc1cc(C(=S)N2CCCC2)ccc1O", "Potency": "inconclusive [activator, single point]"}, {"smiles": "O=C1N=C2N(CCN3CCCCC3)c3ccccc3N2/C1=C\\c1ccc([N+](=O)[O-])s1", "Potency": "active: 18.4 µM"}, {"smiles": "CCOc1ccc2ncc(S(=O)(=O)c3ccccc3)c(N3CCN(c4ccc(OC)cc4)CC3)c2c1", "Potency": "inconclusive [activator, partial curve, poor fit]"}, {"smiles": "Cc1cc(S(=O)(=O)ON2C(=O)c3ccccc3C2=O)ccc1F", "Potency": "inconclusive [activator, single point]"}, {"smiles": "CC(C)Oc1ccc(C(=O)NCc2cccs2)cc1", "Potency": "inactive"}, {"smiles": "O=C(N/N=C/c1ccc(F)cc1)c1cc(-c2ccc3c(c2)OCO3)n[nH]1", "Potency": "active: 29.1 µM"}, {"smiles": "Nc1nc(N)c2[nH]c(-c3ccccc3)nc2n1", "Potency": "inconclusive [activator, single point]"}, {"smiles": "CCOc1ccccc1C(=O)OC(C)C(=O)Nc1ccc(S(=O)(=O)N2CCCC2)cc1", "note": "(centres undefined)", "Potency": "inactive"}, {"smiles": "CS(=O)(=O)Nc1ccc(C(=O)NCCSC2CCCCC2)cc1", "Potency": "inactive"}, {"smiles": "O=C(Cc1ccc2c(c1)OCCO2)N1CCN(c2ccccc2)CC1", "Potency": "inactive"}, {"smiles": "COc1cccc2c1C(=O)C[C@]1(CCCC[C@@H]1C)O2", "Potency": "inconclusive [activator, partial curve, poor fit]"}, {"smiles": "Cc1cccc(NC(=S)NNC(=O)c2cc3c(s2)CCC(C)C3)c1C", "note": "(centres undefined)", "Potency": "active: 16.4 µM"}, {"smiles": "CCc1nc(Nc2ccccc2)c2nnn(Cc3ccccc3)c2n1", "Potency": "inconclusive [activator, single point]"}, {"smiles": "COc1ccc2nc(N3C(=O)/C(=C/c4ccccc4)NC3=S)sc2c1", "Potency": "inconclusive [activator, partial curve, poor fit]"}, {"smiles": "CCC(Sc1nc2cc(OC)c(OC)cc2c(=O)n1CCc1ccc(OC)c(OC)c1)C(=O)NCCOC", "note": "(centres undefined)", "Potency": "inactive"}, {"smiles": "COc1ccc(CCNC(=O)C/C(C)=N/NC(=O)c2cnccn2)cc1", "Potency": "inactive"}, {"smiles": "COC(=O)c1c(NC(=O)COc2ccc(Cl)cc2)sc2c1CC(C)(C)NC2(C)C", "Potency": "inconclusive [activator, single point]"}, {"smiles": "CC(=O)COc1ccc2oc(=O)cc(-c3cc4ccccc4o3)c2c1", "Potency": "inconclusive [activator, single point]"}, {"smiles": "O=C(O)c1ccccc1Sc1ncnc2sccc12", "Potency": "inconclusive [activator, partial curve]"}, {"smiles": "CCC(=O)Nc1ccc(OC)cc1OC", "Potency": "inconclusive [activator, single point]"}, {"smiles": "O=C(NCCc1ccco1)C(=O)NCC1CCCN1S(=O)(=O)c1ccccc1", "note": "(centres undefined)", "Potency": "inconclusive [activator, partial curve, poor fit]"}, {"smiles": "Cc1cccc(-c2nnc(-c3ccc4ccccc4c3)o2)c1", "Potency": "inconclusive [activator, single point]"}, {"smiles": "CCN(CC)S(=O)(=O)c1cc(NS(=O)(=O)c2cc(Cl)ccc2Cl)ccc1C", "Potency": "inconclusive [activator, single point]"}, {"smiles": "CN1CCN(S(=O)(=O)c2ccc(N(C)Cc3c(F)cccc3Cl)nc2)CC1", "Potency": "inconclusive [activator, single point]"}, {"smiles": "CCN1CCN(c2ncc(C(=O)Nc3ccccc3C(=O)OC)c3ccccc23)CC1", "Potency": "inconclusive [activator, single point]"}, {"smiles": "Cn1c(=O)c2c(nc(Br)n2CC(=O)C23CC4CC(CC(C4)C2)C3)n(C)c1=O", "activity, positive = re-replication": "inactive: -184% [at 0.0737 µM]"}, {"smiles": "CCOC(=O)c1sc(NC(=S)NC(=O)C23CC4CC(CC(C4)C2)C3)cc1C", "Potency": "inactive"}, {"smiles": "c1ccc(-c2cn3c(n2)-c2ccccc2C3)cc1", "Potency": "inactive"}, {"smiles": "COc1ccccc1CCNC(=O)c1ccc(C)o1", "Potency": "inconclusive [activator, partial curve, poor fit]"}, {"smiles": "COc1ccc(C)cc1NC(=O)c1ccc2c(=O)n3c(nc2c1)CCCCC3", "Potency": "inactive"}, {"smiles": "COc1cc2c(C(=O)O)c(C)n(CC(C)C)c2c2ccccc12", "Potency": "inconclusive [activator, single point]"}, {"smiles": "CCCCCOC(=O)C1=C(C)NC(=O)NC1c1ccccc1", "note": "(centres undefined)", "Potency": "inconclusive [activator, full curve, poor fit]"}, {"smiles": "Cc1ccc(C(=O)Nc2ccc(N3CCOCC3)cc2N2CCOCC2)cc1", "Potency": "inconclusive [activator, partial curve, poor fit]"}, {"smiles": "O=C(Cc1ccc([N+](=O)[O-])cc1)Nc1cccc(C(=O)N2CCCCC2)c1", "Potency": "inactive"}, {"smiles": "CCn1cc(C(=O)OCC(=O)OC2CC(C)CCC2C(C)C)c(=O)c2ccc(C)nc21", "note": "(centres undefined)", "Potency": "inconclusive [activator, single point]"}]}]}
